Test results: paper PMC4207660, “Identification and Characterization of Hundreds of Potent and Selective Inhibitors of Trypanosoma brucei Growth from a Kinase-Targeted Library Screening Campaign” (PLoS Neglected Tropical Diseases, 2014)
Converted amounts (≈) assume the structure as drawn. Like-named read-outs stand apart in the source and are kept apart here.

Key:
ChromlogD assay = assay: ChromlogD assay
Protocol: The Chromatographic Hydrophobicity Index (CHI)[22] values were measured using reversed phase HPLC column (Luna C18 (2), Phenomenex, UK) with a fast acetonitrile gradient at starting mobile phase of pH = 7.4. CHI values are derived directly from the gradient retention times by using a calibration line obtained for standard compounds. The CHI value approximates to the volume % organic concentration when the compound elutes. […] The average error of the assay is ±3 CHI unit or ±0.25 ChromlogD.

[1] = system: T. brucei brucei parasites (Lister 427 strain); assay: Dose response growth inhibition assay (resazurin, 72 h); format: cell-based; details: Trypanosoma brucei; T. b. brucei growth inhibition; read-out: Tbb pEC50 (converted)
Protocol: Greiner sterile black clear bottom 384-well assay plates were pre-dispensing with 200 nL of compound in each well, from master plates at 1 mM (100% DMSO) containing selection from the GSK compound collection. Controls of 0% response (control 1, 200 nL of 100%DMSO) and 100% response (control 2, 200 nL of 1 mM pentamidine) were included in each assay plate in columns 6 and 18, respectively. Plates containing 200 nL of 100% DMSO were included randomly in the assay, to assess quality through all process. […] After this period, 10 µL of 200 µM resazurin solution in prewarmed HMI-9 were added to each well, and plates were allowed to incubate 2 hours more prior fluorescence reading in a Wallac EnVision Multilabel Plate Reader (Perkin-Elmer). Raw fluorescent data from the Envision plate reader were uploaded into GSK HTS database (ActivityBase). Activity of each well was normalized as a percentage of inhibition per-plate basis using the following equation: [drawing 1]
For dose-response experiments, serial compound dilutions of selected hits from the primary campaign were plotted against compound concentration. Dose response master plates were prepared by 3-fold dilutions (starting with 10 mM DMSO stock solutions), providing 11 concentrations. From these master plates, 200 nL per well was stamped in final assay plates, including the same controls describe in the primary single shot assay. […]

Cytochrome P450 (CYP450) = Cytochrome P450 (CYP450) (Homo sapiens, UniProt P08684); assay: Cytochrome P450 inhibition profile; format: in vitro ADME; details: Measured
Protocol: The P450 inhibition profile of the inhibitors was determined as previously described.

[2] = CLND kinetic solubility assay; format: physicochemical; details: phosphate buffered saline, pH 7.4, aqueous buffer, kinetic from dmso stock; Measured; read-out: Aq Sol
Protocol: 5 µL of 10 mM DMSO stock solution was diluted to 100 µL with pH 7.4 phosphate buffered saline, equilibrated for 1 hour at room temperature, filtered through Millipore MultiscreenHTS-PCF filter plates (MSSL BPC). The filtrate was quantified by suitably calibrated flow injection Chemi-Luminescent Nitrogen Detection.

PFI (ChromlogD assay) | IC50 (Cytochrome P450 (CYP450); CYP3A4, VG substrate, read-out: CYP3A4VG pXC50 (converted)) [nM] | IC50 (Cytochrome P450 (CYP450); CYP3A4, VR substrate, read-out: CYP3A4VR pXC50 (converted)) [nM] | solubility kinetic at 1 h [2] [µM] | SMILES | EC50 [1] [nM]
5.73 | – | – | – | COCc1cc(-c2cc3c4c(n[nH]c4c2)Nc2ccccc2O3)nc(N)n1 [NEU-0001117] | –
7.25 | – | – | – | Nc1ncnc2cc(-c3cccc(NC(=O)c4ccncc4)c3)sc12 [NEU-0001120] | 126
8.61 | 3160 | 7940 | 2 (≈ 0.959 µg/mL) | Cn1cc(-c2ccc3nc(-c4cc(-c5cccc(CCN6CCOCC6)c5)cnc4N)[nH]c3c2)cn1 [NEU-0001121] | 63.1
